Test results published in PubChem BioAssay AID485294 (National Center for Advancing Translational Sciences (NCATS), 2010).
Out of some 370,000 compounds screened, about 150 (0.041%) were called active. The inconclusive results got no clear call from the source; some entries with a clear call stand among them for comparison. The call rests on the fitted dose curve; in most records, active means well fitted inhibition curve with a large enough effect; inconclusive means small, poorly fitted or top-dose-only effect; inactive means flat fitted curve, though single readings scatter. Potencies of inconclusive entries are left out as doubtful fits.

Target: Beta-lactamase (Escherichia coli (strain K12)) (UniProt P00811)
Chain of UniProt P00811 (P00811 whole entry, looked up): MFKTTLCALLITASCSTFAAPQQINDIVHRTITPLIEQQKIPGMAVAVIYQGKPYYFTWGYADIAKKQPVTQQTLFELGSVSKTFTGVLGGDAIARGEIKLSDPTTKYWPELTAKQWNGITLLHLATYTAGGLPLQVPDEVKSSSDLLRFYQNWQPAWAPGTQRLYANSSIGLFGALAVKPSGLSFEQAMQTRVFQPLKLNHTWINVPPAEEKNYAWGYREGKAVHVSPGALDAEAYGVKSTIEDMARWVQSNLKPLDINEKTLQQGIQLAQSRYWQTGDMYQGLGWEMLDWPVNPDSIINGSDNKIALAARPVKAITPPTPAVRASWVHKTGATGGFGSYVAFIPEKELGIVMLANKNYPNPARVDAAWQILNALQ
Test: qHTS Inhibitors of AmpC Beta-Lactamase (assay with detergent); further: nearly all actives have a fitted effect of over 25% in size
Conditions: AmpC hydrolysis of nitrocefin, absorbance 480 nm, 0.01% Triton; series mostly up to 114 µM
Method in brief: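 20 mM phosphate pH 7.0 + 0.01% (detergent screen) or 0.0001% Triton X-100; 5.3 nM AmpC reagent; cpd preinc 15 min RT; nitrocefin (800 uM stock) to start; A480 q20 s × 4 min; Activity was normalised to no-enzyme and no-compound control wells.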
Potency means the concentration at half of the fitted maximal effect; tags describe the fitted curve by direction and shape.

SMILES | Potency
CC1=Nc2ccccc2NC(=O)C1Sc1nnc(C)s1 (stereo unspecified) | inconclusive [inhibitor, partial curve, poor fit]
O=C(NC1CCCC1)C(c1ccc(Cl)cc1)N(C(=O)c1csnn1)C1CC1 (stereo unspecified) | inconclusive [inhibitor, single point]
CC(C)Oc1ccc(CC2CC(=O)NC2=O)cc1 (stereo unspecified) | inconclusive [inhibitor, partial curve, poor fit]
COc1ccc(C(=O)O/N=C(\N)c2ccccn2)cc1 | inconclusive [inhibitor, full curve, poor fit]
O=C(CSc1nccn1-c1ccc(Cl)cc1)Nc1nc2ccccc2s1 | inactive
c1ccc2c(N3CCCCCC3)nc(-c3ccncc3)nc2c1 | inactive
CCC(C)C(Nc1ncnc2scc(-c3ccccc3)c12)C(=O)O (stereo unspecified) | inconclusive [inhibitor, full curve, poor fit]
Cn1c(SCC(=O)NCc2ccccc2)nnc1C1CC1 | inconclusive [inhibitor, partial curve, poor fit]
COc1ccc(NC(=S)N2CCN(S(C)(=O)=O)CC2)cc1OC | inconclusive [inhibitor, partial curve]
Cc1cccc(N(Cc2ccccc2)C(=O)c2cc(S(=O)(=O)N3CCOCC3)ccc2F)c1 | inconclusive [inhibitor, full curve]
CCN(CC)C(=O)C1CCCN(C/C(C)=C/c2ccccc2)C1 (stereo unspecified) | inactive
Cn1cnc([N+](=O)[O-])c1NC(C)(C)C | inconclusive [inhibitor, full curve, poor fit]
CC(C)NC(=O)CN(c1cccc(Br)c1)S(C)(=O)=O | inconclusive [inhibitor, single point]
CCOc1c(Cl)cc(CNCc2ccncc2)cc1OC | inconclusive [inhibitor, full curve]
Cc1cc(C)n2cc(COc3ccc4ccccc4c3)nc2n1 | inconclusive [inhibitor, full curve]
O=C(Cc1ccccc1)OCCN1CCOCC1 | inconclusive [inhibitor, partial curve, poor fit]
CCCCN1C(=O)NC2NC(=O)NC21 (stereo unspecified) | inactive
O=P(O)(Oc1ccccc1)OC(c1ccccc1)C(F)(F)C(F)(F)F (stereo unspecified) | inconclusive [inhibitor, partial curve, poor fit]
Cc1ccc(S(=O)(=O)Nc2c(C)n(C)n(-c3ccccc3)c2=O)cc1C(=O)OC(C)C(=O)N(C)c1ccccc1 (stereo unspecified) | inconclusive [inhibitor, full curve, poor fit]
Clc1ccc(-c2cccs2)nn1 | inconclusive [inhibitor, full curve]
COc1cc(/C=C2\SC(=Nc3ccc(O)cc3)NC2=O)cc(OC)c1OC | inactive
CCc1nc(-c2ccccc2)c2ccccn12 | inactive
COc1cc(C(=O)OCc2nc3ccsc3c(=O)[nH]2)c([N+](=O)[O-])cc1OC | inconclusive [inhibitor, partial curve, poor fit]
Cc1ncc([N+](=O)[O-])n1CC(=O)Nc1ccc(F)c(F)c1 | inconclusive [inhibitor, full curve, poor fit]

SMILES | Potency
O=C(NCc1ccc(F)cc1)C1CCN(S(=O)(=O)c2ccc(Cl)cc2)CC1 | inconclusive [inhibitor, full curve, poor fit]
CCOc1ccc(CCNC(=O)COC(=O)C2CCN(c3ccc(C(F)(F)F)cn3)CC2)cc1OCC | inconclusive [inhibitor, partial curve]
CC1CN(S(=O)(=O)c2ccc(Cl)c(S(=O)(=O)N3CC(C)OC(C)C3)c2)CC(C)O1 (stereo unspecified) | inconclusive [inhibitor, partial curve, poor fit]
Cc1cc2ccccc2n1-c1ccc(C(=O)N2CCCCC2)s1 | inactive
COc1ccc(Nc2cc(C)nc(NCc3ccccc3)n2)cc1 | inactive
COc1cc(/C=N/NC(=O)CCc2n[nH]c(=O)[nH]c2=O)ccc1O | inconclusive [inhibitor, partial curve, poor fit]
CCCCOc1cccc(C(=O)Nc2cc3nn(-c4ccc(F)cc4)nc3cc2C)c1 | inactive
COc1ccc(-c2nc(SC(CC(=O)NCc3ccccc3)c3ccc(OC)c(OC)c3)n[nH]2)cc1 (stereo unspecified) | inconclusive [inhibitor, full curve, poor fit]
Cc1occc1C(=O)NCc1ccco1 | inconclusive [inhibitor, full curve, poor fit]
CN(C)C(=S)NC(=O)c1cccc(Cl)c1 | inactive
O=C(Cc1nc(-c2ccc([N+](=O)[O-])cc2)cs1)Nc1ccccc1 | inconclusive [inhibitor, partial curve, poor fit]
O=C(c1ccccc1)N1CCN(Cc2ccccc2)CC1 | inconclusive [inhibitor, full curve, poor fit]
CCc1ccc(-c2ccc3nnc(SC)n3n2)cc1 | inactive
O=C(Nc1cccc(-c2cn3ccccc3n2)c1)c1cnccn1 | inconclusive [inhibitor, single point]
CC(=O)Oc1c(C)cc(O)c2ccccc12 | inconclusive [inhibitor, full curve, poor fit]
O=C(CCn1cccc1)N1CCc2ccccc21 | inactive
Brc1ccc(-c2cc3c(N4CCN(c5ccccc5)CC4)nccn3n2)cc1 | inactive
O=C(CSc1nc2nn(-c3ccccc3)c(=O)c-2c2n1CCCCC2)NCCc1ccccc1 | inconclusive [inhibitor, partial curve, poor fit]
Cn1sc(NC(=O)c2cccc(Cl)c2)nc1=O | inactive
NC(=S)N/N=C/c1ccc(Br)o1 | inconclusive [inhibitor, partial curve]
CCOc1ccccc1-n1c(SCC(=O)N2CCOCC2)nc2ccccc2c1=O | inactive
CSc1ccccc1C(=O)C1CCCN(C(=O)c2ccc(N3CCOCC3)cc2)C1 (stereo unspecified) | inactive
O=C(Nc1c(Cl)cccc1Cl)c1ccc(-c2ccccc2)cc1 | inconclusive [inhibitor, single point]
C=CCNC(=O)C1CC=CCC1C(=O)O (stereo unspecified) | inconclusive [inhibitor, full curve, poor fit]

SMILES | Potency
O=[N+]([O-])c1ccc(S(=O)(=O)N/N=C/c2ccsc2)cc1 | inconclusive [inhibitor, full curve, poor fit]
COc1cc(SC)ccc1C(=O)Nc1ccc(Br)cn1 | inactive
CC(=O)Nc1cccc(C(=O)Nc2ccc(S(=O)(=O)N3CCCCC3)cc2)c1 | inconclusive [inhibitor, partial curve]
COc1cccc(CNCCO)c1OCc1ccc(Cl)cc1 | inactive
CCOc1cccc(CN2CCCC(CNC(=O)c3cccc(OC)c3OC)C2)c1 (stereo unspecified) | inconclusive [inhibitor, partial curve, poor fit]
COc1ccc(NC(=O)CC2C(=O)N(c3ccc(C)cc3)C(=O)N2CCc2ccccc2)cc1 (stereo unspecified) | inactive
O=C(N1CCCCC1)C1(c2ccccc2)CCOCC1 | inconclusive [inhibitor, partial curve]
N#Cc1nc(COc2ccccc2)oc1N1CCCCCC1 | inconclusive [inhibitor, full curve]
Cc1ccc2nc(/C(C#N)=C/c3cn[nH]c3-c3ccc(F)cc3)[nH]c2c1 | inactive
CCOC(=O)N1CCc2c(sc3c2c(=O)n(Cc2ccccc2)c(=O)n3Cc2c(F)cccc2Cl)C1 | inactive
O=C(CN1CCN(c2ncccn2)CC1)N(Cc1ccccc1)c1ccc(F)cc1 | inconclusive [inhibitor, full curve, poor fit]
CC(=O)NN1C(=O)c2ccccc2NC1c1cccnc1 (stereo unspecified) | inconclusive [inhibitor, single point]
O=C(O)c1ccc(N=NN2CCCCCC2)cc1 | inconclusive [inhibitor, full curve, poor fit]
Oc1c(C2=NCCNC(C(F)(F)F)=C2)ccc2ccccc12 | inactive
CCOc1ccc(NC(=O)CNC(=O)Cc2ccccc2)cc1 | inconclusive [inhibitor, full curve, poor fit]
c1cc2c(cc1OCCNC1CCCC1)CCC2 | inactive
Cc1cc(C)nc(SCC(=O)c2c(N)n(C)c(=O)n(C)c2=O)n1 | inconclusive [inhibitor, single point]
Cc1ccc(N2C(=O)S/C(=C/c3cn(C)c4ccccc34)C2=O)cc1 | inconclusive [inhibitor, partial curve, poor fit]
Cc1sc2nc(CN3CCCC3)nc(N3CCN(S(=O)(=O)c4cccc(F)c4)CC3)c2c1C | inconclusive [inhibitor, full curve]
C=CCc1ccc(OCC(O)CN2CCCCC2)c(OC)c1 (stereo unspecified) | inconclusive [inhibitor, full curve, poor fit]
O=C(NNC1=C(C(=O)C(F)(F)F)CCC1)c1cccc(Cl)c1 | inactive
O=C(CCC(=O)N1CCN(c2ccc(F)cc2)CC1)N1CCN(c2ccc(F)cc2)CC1 | inconclusive [inhibitor, full curve, poor fit]
COc1ccccc1C(=O)NNC(=O)c1cccc(Br)c1 | inconclusive [inhibitor, full curve, poor fit]
